Data: patent publication US20240309004A1, “SELECTIVE CYCLIN-DEPENDENT KINASE INHIBITORS AND METHODS OF THERAPEUTIC USE THEREOF” (ViroKyne Therapeutics, LLC, priority 2021, published 2024)
Where two headings read alike, the source gives them in different places.

Columns and labels:
[1] = test system: Epstein-Barr virus Akata strain; assay: Epstein-Barr primary assay, Akata strain, Akata cells; format: cell-based
[2] = test system: Adenovirus Adenoid75 strain; assay: Adenovirus primary assay, Adenoid75 strain, HFF cells; format: cell-based
HFF cells [3] = assay: Cytotoxicity concurrent with HSV2 primary assay; format: cell-based, human
Method: (§1) Assays were performed in monolayers as described. […] Toxicity was measured using CTG as above. […] Toxicity was measured using CTG as above.

HSV1 strain E-377 = assay: HSV1 primary assay, strain E-377, HFF cells; format: cell-based, Herpes Simplex Virus 1
Method: as §1
(§2) Monolayers of HFF cells were prepared in six-well plates and incubated at 37° C. for 2 d to allow the cells to reach confluency. Media was then aspirated from the wells and 0.2 mL of virus-containing solution was added to each of three wells to yield 20-30 plaques in each well. The virus was allowed to adsorb to the cells for 1 h and the plates were agitated every 15 minutes. Compounds were diluted in assay media consisting of MEM with Earl's salts supplemented with 2% FBS, glutamine, penicillin, and gentamycin. Diluted drug was added to duplicate wells and the plates were incubated for various times, depending on the virus used. For HSV-1 and -2, the monolayers were then stained with 1% crystal violet in 20% methanol and the unbound dye removed by washing with dH20. For all other assays, the cell monolayer was stained with 1% Neutral Red solution for 4-6 h then the stain was aspirated and the cells were washed with PBS.

VZV strain Ellen = assay: VZV primary assay, strain Ellen, HFF cells; format: cell-based, Varicella Zoster Virus; details: cell line HFF
Method: as §1, §2

HSV2 strain G = assay: HSV2 primary assay, strain G, HFF cells; format: cell-based, herpes simplex virus 2
Method: as §1, §2

HFF cells [4] = assay: Cytotoxicity concurrent with Adenovirus primary assay; format: cell-based, human; details: Adenovirus primary assay, HFF cells
HFF cells [5] = assay: Cytotoxicity concurrent with VZV Ellen primary assay; format: cell-based, human
Method: as §1

HFF cells [6] = assay: Cytotoxicity concurrent with HSV1 E-377 primary assay; format: cell-based, human
Method: as §1

HCMV strain AD169 [7] = assay: HCMV primary assay (CPE), strain AD169, HFF cells; format: cell-based, Human Cytomegalovirus
Method: The antiviral activity of the compound against HCMV in the described Primary assay was measured by treating primary Human foreskin fibroblast (HFF) cells infected with HCMV with a range of compound concentrations—description of methods for this assay can be found in section 1.3.2.1. […] . Additional tested assay parameters in this Primary assay can be found in Table 3.2.1 and include EC90, S150, and S190 values—descriptions of those data points can be found in section 3.2.1.

HFF cells [8] = assay: Cytotoxicity concurrent with HCMV AD169 primary assay; format: cell-based, human
Murine CMV strain Smith = assay: Murine CMV primary assay, strain Smith, MEF cells; format: cell-based, Mouse Cytomegalovirus
[9] = Cytotoxicity concurrent with Guinea pig CMV secondary assay; format: cell-based; details: GP lung cells
[10] = test system: Human herpes virus 6B strain Z29; assay: Human herpes virus 6B primary assay, strain Z29, MOLT-3 cells; format: cell-based, Human Herpesvirus 6B; details: Human betaherpesvirus 6B
[11] = test system: Human herpes virus 8 strain BCBL-1; assay: Human herpes virus 8 primary assay, BCBL-1 cells; format: cell-based, Human Herpesvirus 8; details: Human gammaherpesvirus 8, BCBL1, strain BCBL-1, BCBL-1 cells
[12] = Cytotoxicity concurrent with HCMV secondary assay; format: cell-based; details: human, HFF cells
Method: (§3) Monolayers of HFF cells were prepared in 96-well plates and incubated at 37° C. for 1 d to allow the cells to reach confluency. Media was then aspirated from the wells and cells infected at a high MOI. At 1 h following infection, the inocula were removed and the monolayers rinsed with fresh media. […] Drug dilutions were added to the wells and the plates were incubated for various times, depending on the virus used and represents a single replication cycle for the virus. A duplicate set of dilutions were also performed but remained uninfected to serve as a cytotoxicity control and received equal compound exposure. Supernatants from each of the infected wells were subsequently titered using CTG in a TCID50 assay to quantify the progeny virus. For HCMV only, viral yield in the supernatants from the infected cells were titered using qPCR with HCMV primers [NT], and probe [NT].

CDK7/cyclin H = CDK7/cyclin H (Homo sapiens (Human), UniProt P50613); assay: Kinase activity assay, CDK7/cyclin H; format: biochemical; details: 10 μM ATP, 3-fold serial dilution starting at 10 μM, read-out: Compound IC50 CDK7/cyclin H
HCMV strain AD169 [13] = assay: HCMV secondary assay (yield reduction), strain AD169, HFF cells; format: cell-based, Human Cytomegalovirus; details: Human betaherpesvirus 5, virus strain AD169, HFF cells
Method: as §3

[14] = Cytotoxicity concurrent with HPV11 primary assay; format: cell-based; details: human, C-33 A cells
Description: An HPV11 replicon assay was developed and expresses the essential E1 and E2 proteins from the native promoter. The E2 origin binding protein interacts with the virus origin of replication and recruits the E1 replicative helicase which unwinds the DNA and helps to recruit the cellular DNA replication machinery (including DNA polymerases, type I and type II topoisomerases, DNA ligase, single-stranded DNA binding proteins, proliferating cell nuclear antigen). The replication complex then drives the amplification of the replicon which can be assessed by the expression of a destabilized NanoLuc reporter gene carried on the replicon. In this assay, the replicon (pMP619) is transfected into C-33 A cells grown as monolayers in 384-well plates. At 48 h post transfection, the enzymatic activity of the destabilized NanoLuc reporter is assessed with NanoGlo reagent. […] . Beadle et al., 2016.

[15] = Cytotoxicity concurrent with HHV-8 primary assay; format: cell-based; details: human
in vitro = format: cell-based; details: guinea pig
[16] = Cytotoxicity concurrent with EBV primary assay; details: human
[17] = Cytotoxicity concurrent with HHV-6B primary assay; format: cell-based; details: human
CDK9/cyclin T1 = CDK9/cyclin T1 (Homo sapiens (Human), UniProt P50750); assay: Kinase activity assay, CDK9/cyclin T1; format: biochemical; details: Table 3.1.1; 10 μM ATP; 10-dose duplicate, 3-fold serial dilution starting at 10 μM; read-out: Compound IC50 CDK9/cyclin T1
[18] = Cytotoxicity concurrent with HCMV AD169 primary assay; format: cell-based, human; details: human, CC50
[19] = BCBL-1 cells without virus induction
[20] = Akata cells without virus induction
[21] = Human betaherpesvirus 5, virus strain AD169, HFF cells
[22] = Molt-3 cells without virus addition

Chain of UniProt P50750 (P50750 whole entry): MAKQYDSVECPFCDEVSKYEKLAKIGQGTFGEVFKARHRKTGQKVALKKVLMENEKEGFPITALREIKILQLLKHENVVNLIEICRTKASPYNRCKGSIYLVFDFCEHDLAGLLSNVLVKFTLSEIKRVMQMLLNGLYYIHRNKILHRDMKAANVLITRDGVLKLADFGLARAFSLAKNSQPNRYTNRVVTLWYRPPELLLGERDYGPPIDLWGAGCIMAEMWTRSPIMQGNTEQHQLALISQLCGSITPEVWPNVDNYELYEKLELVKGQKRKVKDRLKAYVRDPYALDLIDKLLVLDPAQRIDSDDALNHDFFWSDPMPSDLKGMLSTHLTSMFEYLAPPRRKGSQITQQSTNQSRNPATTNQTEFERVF
Chain of UniProt P50750 (O60563 whole entry partner): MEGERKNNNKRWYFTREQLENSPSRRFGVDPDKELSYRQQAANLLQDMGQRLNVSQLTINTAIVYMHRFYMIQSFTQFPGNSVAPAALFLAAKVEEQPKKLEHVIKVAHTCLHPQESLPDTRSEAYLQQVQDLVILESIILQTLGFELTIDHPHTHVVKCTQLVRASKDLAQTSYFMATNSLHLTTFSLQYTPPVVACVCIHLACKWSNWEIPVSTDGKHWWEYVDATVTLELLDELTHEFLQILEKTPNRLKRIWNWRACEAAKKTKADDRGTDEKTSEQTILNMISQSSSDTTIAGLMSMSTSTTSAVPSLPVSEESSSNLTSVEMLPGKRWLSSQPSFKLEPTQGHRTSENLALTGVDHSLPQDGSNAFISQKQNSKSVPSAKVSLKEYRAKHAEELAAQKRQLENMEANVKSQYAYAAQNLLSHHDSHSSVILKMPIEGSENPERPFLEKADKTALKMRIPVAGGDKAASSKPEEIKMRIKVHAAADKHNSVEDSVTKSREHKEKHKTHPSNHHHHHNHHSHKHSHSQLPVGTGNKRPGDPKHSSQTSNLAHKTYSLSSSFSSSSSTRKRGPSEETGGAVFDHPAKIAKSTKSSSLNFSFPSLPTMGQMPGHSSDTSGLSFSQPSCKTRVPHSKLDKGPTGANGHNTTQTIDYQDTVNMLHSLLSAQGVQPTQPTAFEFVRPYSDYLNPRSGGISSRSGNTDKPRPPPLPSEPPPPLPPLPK
Chain of UniProt P50613 (P50613 whole entry): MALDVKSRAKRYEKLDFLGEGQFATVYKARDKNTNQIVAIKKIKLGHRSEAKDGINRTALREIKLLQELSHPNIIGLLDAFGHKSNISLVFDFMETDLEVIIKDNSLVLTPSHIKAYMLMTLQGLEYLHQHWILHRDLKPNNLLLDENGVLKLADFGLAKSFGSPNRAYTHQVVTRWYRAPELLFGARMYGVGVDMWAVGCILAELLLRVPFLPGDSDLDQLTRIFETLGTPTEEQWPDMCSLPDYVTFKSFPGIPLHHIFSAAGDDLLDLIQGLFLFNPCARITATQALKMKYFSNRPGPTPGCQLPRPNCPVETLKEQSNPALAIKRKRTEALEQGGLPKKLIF
Chain of UniProt P50613 (P51946 whole entry partner): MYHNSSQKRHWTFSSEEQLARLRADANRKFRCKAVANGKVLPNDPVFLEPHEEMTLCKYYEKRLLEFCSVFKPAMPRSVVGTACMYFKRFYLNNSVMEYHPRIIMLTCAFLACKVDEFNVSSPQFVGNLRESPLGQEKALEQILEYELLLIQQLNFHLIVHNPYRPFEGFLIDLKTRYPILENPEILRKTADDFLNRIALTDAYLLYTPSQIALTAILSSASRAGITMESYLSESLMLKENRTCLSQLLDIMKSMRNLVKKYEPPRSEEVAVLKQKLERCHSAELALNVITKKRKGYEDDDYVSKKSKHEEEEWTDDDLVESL

| SMILES | EC50 (Murine CMV strain Smith) | EC90 (Murine CMV strain Smith) | EC50 ([1]; human gammaherpesvirus 4) | EC90 ([1]; human gammaherpesvirus 4) | CC50 [9] | EC50 [10] | EC90 [10] | EC50 [11] | EC90 [11] | CC50 ([12]; uninfected HFF cell monolayers) | IC50 (CDK7/cyclin H) | EC90 (HCMV strain AD169 [13]) | CC50 ([14]; C-33 A cell monolayers) | CC50 [15, 19] | CC50 at 7 d (in vitro) | CC50 at 72 h [16, 20] | EC50 (HCMV strain AD169 [7]; [21]) | EC90 (HCMV strain AD169 [7]; [21]) | CC50 at 7 d [17, 22] | CC50 [18] | also measured |
| --- | --- | --- | --- | --- | --- | --- | --- | --- | --- | --- | --- | --- | --- | --- | --- | --- | --- | --- | --- | --- | --- |
| CC(C)(C)OC(=O)N[C@@H]1CC[C@H](Nc2cc3c4ccc(F)cc4nn3cn2)C1 [VKT-033] | – | – | – | – | – | – | – | – | – | – | – | – | – | – | – | – | – | – | – | – | EC50 [1]: 9.25 µM; EC90 [1]: 10 µM; EC50 [2]: 10 µM; EC90 [2]: 10 µM; CC50 (HFF cells [3]): 21.8 µM; EC50 (HSV1 strain E-377): 10 µM; EC90 (HSV1 strain E-377): 10 µM; EC50 (VZV strain Ellen): 10 µM; EC90 (VZV strain Ellen): 10 µM; EC50 (HSV2 strain G): 10 µM; EC90 (HSV2 strain G): 10 µM; CC50 (HFF cells [4]): 28.2 µM; CC50 (HFF cells [5]): 15.4 µM; CC50 (HFF cells [6]): 20.5 µM; EC50 (HCMV strain AD169 [7]; virus strain AD169, HFF cells): 2 µM; EC90 (HCMV strain AD169 [7]; virus strain AD169, HFF cells): 2 µM; CC50 (Akata cells): 38 µM; CC50 (HFF cells [8]): 7.94 µM |
| N[C@H]1CC[C@H](Nc2cc3c4ccc(F)cc4nn3cn2)C1 [VKT-036] | 10 µM | 10 µM | 1.35 µM | 7.57 µM | 50 µM | 5.86 µM | 8.02 µM | 5.69 µM | 8.86 µM | 34.1 µM | 3.64 µM | 9.94 µM | 21.2 µM | 12.9 µM | 23.4 µM | 12.6 µM | 10 µM | 10 µM | 28.1 µM | 16.5 µM | IC50 (CDK9/cyclin T1): 68.1 nM |
| NC(=O)CN1CCC(Nc2cc3c4ccc(F)cc4nn3cn2)CC1 [VKT-026] | – | – | 10 µM | 10 µM | 50 µM | 10 µM | 10 µM | 10 µM | 10 µM | – | – | 9.87 µM | – | – | 50 µM | – | 1.48 µM | 10 µM | – | 26.8 µM | CC50 [12]: 27.2 µM; CC50 [14]: 50 µM; CC50 ([15]; BCBL-1 cells): 42.4 µM; CC50 at 72 h ([16]; Akata cells): 42.9 µM; CC50 at 7 d ([17]; MOLT-3 cells): 48.6 µM |
| N[C@@H]1CC[C@H](Nc2cc3c4ccc(F)cc4nn3cn2)C1 [VKT-034] | 10 µM | 10 µM | 1.06 µM | 2.91 µM | 50 µM | 8.71 µM | 10 µM | 10 µM | 10 µM | 27.2 µM | 2.54 µM | 9.67 µM | 29.2 µM | 31.6 µM | 25 µM | 30.9 µM | 10 µM | 10 µM | 32.8 µM | 19.5 µM | IC50 (CDK9/cyclin T1): 80.7 nM |
